# Reference: the supplement of paper PMC8728848
# The list shows a part of the results.
# B1: CSA (Cytisus scoparius), P29257 (protein)
# chain: SEELSFSFTKFKTDQKNLILQRDALITPTGKLQLTTVENGKPAAYSLGRALYSTPIHIWDKSTGDEASFATFFSFVISDAPNPSTAATDGLAFFLAPADTQPQSAGGYLGLFEKDSSYNSSNQIVAVEFDTYYNSAWDPQTNPHIGIDVNTIKSKKVSSWGFKNGNVATVLITYQPSSKSLVASLVYPSGQTSDKTSYIISANVDLKATVPEWVRIGFSATTGQTDNYIETHDILSWSFKSKLPATKN
# Assays:
# Test in all cases: glycan array binding signal (z-score within array); higher = stronger binding
# Details in all cases: glycan notation: IUPAC condensed, linker removed
# [1] = target: GalNAc(a1-3)GalNAc(b1-3)Gal(a1-4)Gal(b1-4)GlcNAc
# Method in brief: (§1)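 The binding signal is a Z-score computed within each array and averaged over linkers. Arrays of the same protein sequence at different concentrations or buffers were also averaged together. Data originate from 3228 arrays in the Consortium for Functional Glycomics database, kept only where the protein sequence was available.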
# GalNAc(b1-3)Gal = target: GalNAc(b1-3)Gal
# Method in brief: as §1
# [2] = target: GalNAc(b1-3)Gal(a1-4)Gal(b1-4)GlcNAc
# Method in brief: as §1
# [3] = target: GalNAc(b1-3)Gal(a1-4)Gal(b1-4)GlcNAc(b1-3)Gal(b1-4)Glc
# Method in brief: as §1
# [4] = target: GalNAc(b1-3)Gal(a1-6)Gal(b1-4)Glc
# Method in brief: as §1
# GalNAc(b1-3)GalNAc = target: GalNAc(b1-3)GalNAc
# Method in brief: as §1
# GalNAc(b1-3)GlcNAc = target: GalNAc(b1-3)GlcNAc
# Method in brief: as §1
# GalNAc(b1-4)Gal(b1-4)Glc = target: GalNAc(b1-4)Gal(b1-4)Glc
# Method in brief: as §1
# GalNAc(b1-4)GlcNAc = target: GalNAc(b1-4)GlcNAc
# Method in brief: as §1
# [5] = target: GalNAc(b1-4)GlcNAc(b1-2)Man
# Method in brief: as §1
# [6] = target: GalNAc(b1-4)GlcNAc(b1-2)Man(a1-3)[GalNAc(b1-4)GlcNAc(b1-2)Man(a1-6)]Man(b1-4)GlcNAc(b1-4)GlcNAc
# Method in brief: as §1
# [7] = target: GalNAc(b1-4)GlcNAc(b1-3)GalNAc(b1-4)GlcNAc
# Method in brief: as §1
# GalNAc(b1-4)GlcNAc6S = target: GalNAc(b1-4)GlcNAc6S
# Method in brief: as §1
# GalNAc(b1-6)GalNAc = target: GalNAc(b1-6)GalNAc
# Method in brief: as §1
# GalNAc3S(b1-4)GlcNAc = target: GalNAc3S(b1-4)GlcNAc
# Method in brief: as §1
# GalNAc3S(b1-4)GlcNAc3S = target: GalNAc3S(b1-4)GlcNAc3S
# Method in brief: as §1
# [8] = target: GalNAc3S(b1-4)[Fuc(a1-3)]GlcNAc
# Method in brief: as §1
# GalNAc4S6S(b1-4)GlcNAc = target: GalNAc4S6S(b1-4)GlcNAc
# Method in brief: as §1
# GalNAc6S(b1-4)GlcNAc = target: GalNAc6S(b1-4)GlcNAc
# Method in brief: as §1
# Glc(a1-4)Glc = target: Glc(a1-4)Glc
# Method in brief: as §1
# [9] = target: Glc(a1-4)Glc(a1-4)Glc(a1-4)Glc
# Method in brief: as §1
# Glc(a1-6)Glc(a1-6)Glc = target: Glc(a1-6)Glc(a1-6)Glc
# Method in brief: as §1
# [10] = target: Glc(a1-6)Glc(a1-6)Glc(a1-6)Glc
# Method in brief: as §1
# Glc(b1-4)Glc = target: Glc(b1-4)Glc
# Method in brief: as §1
# Glc(b1-6)Glc = target: Glc(b1-6)Glc
# Method in brief: as §1
# GlcA(b1-3)Gal = target: GlcA(b1-3)Gal
# Method in brief: as §1
# GlcA(b1-3)GlcNAc = target: GlcA(b1-3)GlcNAc
# Method in brief: as §1
# GlcA(b1-6)Gal = target: GlcA(b1-6)Gal
# Method in brief: as §1
# [11] = target: GlcA3S(b1-3)Gal(b1-4)GlcNAc(b1-2)Man
# Method in brief: as §1
# [12] = target: GlcA3S(b1-3)Gal(b1-4)GlcNAc(b1-3)Gal(b1-4)Glc
# Method in brief: as §1
# [13] = target: GlcNAc(a1-3)Gal(b1-4)GlcNAc
# Method in brief: as §1
# [14] = target: GlcNAc(a1-4)Gal(b1-3)GlcNAc
# Method in brief: as §1
# [15] = target: GlcNAc(a1-4)Gal(b1-4)GalNAc
# Method in brief: as §1
# [16] = target: GlcNAc(a1-4)Gal(b1-4)GlcNAc
# Method in brief: as §1
# [17] = target: GlcNAc(a1-4)Gal(b1-4)GlcNAc(b1-3)Gal(b1-4)Glc
# Method in brief: as §1
# [18] = target: GlcNAc(a1-4)Gal(b1-4)GlcNAc(b1-3)Gal(b1-4)GlcNAc
# Method in brief: as §1
# [19] = target: GlcNAc(a1-4)Gal(b1-4)GlcNAc(b1-3)Gal(b1-4)GlcNAc(b1-3)Gal(b1-4)GlcNAc
# Method in brief: as §1
# [20] = target: GlcNAc(a1-4)Gal(b1-4)GlcNAc(b1-3)Gal(b1-4)[Fuc(a1-3)]GlcNAc(b1-3)Gal(b1-4)[Fuc(a1-3)]GlcNAc
# Method in brief: as §1
# [21] = target: GlcNAc(a1-6)Gal(b1-4)GlcNAc
# Method in brief: as §1
# [22] = target: GlcNAc(b1-2)Gal(b1-3)GalNAc
# Method in brief: as §1
# [23] = target: GlcNAc(b1-2)Man(a1-3)[GlcNAc(b1-2)Man(a1-6)]Man(b1-4)GlcNAc(b1-4)GlcNAc
# Method in brief: as §1
# [24] = target: GlcNAc(b1-2)Man(a1-3)[GlcNAc(b1-2)Man(a1-6)]Man(b1-4)GlcNAc(b1-4)[Fuc(a1-6)]GlcNAc
# Method in brief: as §1
# [25] = target: GlcNAc(b1-2)Man(a1-3)[GlcNAc(b1-4)][GlcNAc(b1-2)Man(a1-6)]Man(b1-4)GlcNAc(b1-4)GlcNAc
# Method in brief: as §1
# [26] = target: GlcNAc(b1-2)Man(a1-3)[GlcNAc(b1-4)][GlcNAc(b1-2)Man(a1-6)]Man(b1-4)GlcNAc(b1-4)[Fuc(a1-6)]GlcNAc
# Method in brief: as §1
# [27] = target: GlcNAc(b1-2)[GlcNAc(b1-4)]Man(a1-3)[GlcNAc(b1-2)Man(a1-6)]Man(b1-4)GlcNAc(b1-4)GlcNAc
# Method in brief: as §1
binder,measurement,setting,value
B1,glycan array binding signal (z-score),[1],-0.188
same,glycan array binding signal (z-score),GalNAc(b1-3)Gal,2.98
same,glycan array binding signal (z-score),[2],3.35
same,glycan array binding signal (z-score),[3],2.76
same,glycan array binding signal (z-score),[4],4.13
same,glycan array binding signal (z-score),GalNAc(b1-3)GalNAc,-0.132
same,glycan array binding signal (z-score),GalNAc(b1-3)GlcNAc,1.83
same,glycan array binding signal (z-score),GalNAc(b1-4)Gal(b1-4)Glc,0.283
same,glycan array binding signal (z-score),GalNAc(b1-4)GlcNAc,6.99
same,glycan array binding signal (z-score),[5],8.12
same,glycan array binding signal (z-score),[6],3.25
same,glycan array binding signal (z-score),[7],12.4
same,glycan array binding signal (z-score),GalNAc(b1-4)GlcNAc6S,9.73
same,glycan array binding signal (z-score),GalNAc(b1-6)GalNAc,-0.198
same,glycan array binding signal (z-score),GalNAc3S(b1-4)GlcNAc,-0.227
same,glycan array binding signal (z-score),GalNAc3S(b1-4)GlcNAc3S,-0.254
same,glycan array binding signal (z-score),[8],-0.201
same,glycan array binding signal (z-score),GalNAc4S6S(b1-4)GlcNAc,-0.215
same,glycan array binding signal (z-score),GalNAc6S(b1-4)GlcNAc,-0.109
same,glycan array binding signal (z-score),Glc(a1-4)Glc,-0.073
same,glycan array binding signal (z-score),[9],-0.19
same,glycan array binding signal (z-score),Glc(a1-6)Glc(a1-6)Glc,-0.141
same,glycan array binding signal (z-score),[10],-0.171
same,glycan array binding signal (z-score),Glc(b1-4)Glc,-0.218
same,glycan array binding signal (z-score),Glc(b1-6)Glc,-0.177
same,glycan array binding signal (z-score),GlcA(b1-3)Gal,-0.194
same,glycan array binding signal (z-score),GlcA(b1-3)GlcNAc,-0.202
same,glycan array binding signal (z-score),GlcA(b1-6)Gal,-0.043
same,glycan array binding signal (z-score),[11],-0.278
same,glycan array binding signal (z-score),[12],-0.26
same,glycan array binding signal (z-score),[13],-0.161
same,glycan array binding signal (z-score),[14],-0.2
same,glycan array binding signal (z-score),[15],-0.174
same,glycan array binding signal (z-score),[16],-0.202
same,glycan array binding signal (z-score),[17],-0.196
same,glycan array binding signal (z-score),[18],-0.154
same,glycan array binding signal (z-score),[19],-0.181
same,glycan array binding signal (z-score),[20],-0.111
same,glycan array binding signal (z-score),[21],-0.19
same,glycan array binding signal (z-score),[22],-0.18
same,glycan array binding signal (z-score),[23],-0.183
same,glycan array binding signal (z-score),[24],-0.139
same,glycan array binding signal (z-score),[25],-0.238
same,glycan array binding signal (z-score),[26],-0.206
same,glycan array binding signal (z-score),[27],-0.158
